According to PubChem BioAssay (Tox21):
Where “and” joins values, the source holds several entries; their conditions need not be identical. Equal values may be shown once. This list was built around the results that the source calls inconclusive (neither active nor inactive); the mix of calls is not that of the screen. Where a call stands in place of a potency, no number is given. For part of these data: A potency beside an inconclusive call is a rough fit, not a confirmed value. Calls of active or inactive are those of the source. Unless noted, the call rests on the fitted dose curve.

How the values were obtained:
[1] = qHTS assay to identify small molecule agonists of H2AX (AID 1224845; active means well fitted activation curve with a large enough effect in the signal ratio in the repeat runs, not every such curve was filed as active; inconclusive means weak or mixed curves; the % refers to the signal ratio; further: potency means the concentration at half of the fitted maximal effect); conditions: CHO-K1 phospho-H2AX Ser139 HTRF, 3 h; activation (H2AX phosphorylation): at 154 µM (top of the series) unless noted
How it was run: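 Wild-type CHO-K1 cells plated overnight, then exposed 3 hr at 37C to compounds at 15 concentrations (0.76% DMSO). Lysed, then HTRF anti-pH2AX(S139)-cryptate/anti-H2AX-d2 detection after 24 hr at room temperature; emissions 665 and 620 nm.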

[2] = qHTS assay to identify small molecule agonists of H2AX - cell viability counter screen (AID 1224847); further: top concentration of the series differs between compounds; nearly all actives have a fitted effect of over 30% in size
How it was run: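 Viability of CHO-K1 (wild type) cells after 3 hr compound exposure was measured by CellTiter-Glo luminescence.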

[3] = qHTS assay to identify small molecule agonists of the hypoxia (HIF-1) signaling pathway (AID 1224846; active means well fitted activation curve with a large enough effect in the signal ratio in the repeat runs, not every such curve was filed as active; inconclusive means weak or mixed curves; the % refers to the signal ratio); conditions: HRE-bla ME-180 cells, beta-lactamase ratio, 17 h; activation: at 76.8 µM (top of the series) unless noted
How it was run: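 Hypoxia-pathway activation was scored as increased beta-lactamase from an HRE-controlled reporter in ME-180 cells; plated at 2,000 cells per well with 0.5% dialyzed FBS, they were exposed 17 hrs to compounds and then given CCF4-AM.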

[4] = qHTS assay to identify small molecule antagonists of the estrogen related receptor (ERR) signaling pathway from Tox21 library (AID 1224848; active means well fitted curve in the direction sought with a large enough effect in the repeat runs; inconclusive means weak or mixed curves; inactive means no such curve, though single readings can be large; an effect the other way counts as inactive or inconclusive; further: nearly all actives have a fitted effect of over 50% in size)
How it was run: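 Screening used an ERR reporter line supplied by NTP, exposed for 18 h at 37 C to library compounds delivered in DMSO. Signal was luciferase luminescence developed with ONE-Glo at room temperature for 30 min.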

[5] = qHTS assay to identify small molecule agonists of the estrogen related receptor (ERR) signaling pathway from Tox21 library (AID 1224849); conditions: ERR reporter cell line, ONE-Glo luciferase, 18 h; further: nearly all actives have a fitted effect of over 15% in size
How it was run: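 Six hours post-seeding at 37 C/5% CO2, ERR cells receive DMSO-solubilised compounds; after 18 h at 37 C, ONE-Glo reagent is applied and luminescence recorded.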

[6] = A CellTox Green Cytotoxicity Assay to monitor cytotoxicity in HEK293 cells - 0 hour (AID 1224869; active means well fitted curve in the direction sought with a large enough effect in the repeat runs; inconclusive means weak or mixed curves; inactive means no such curve, though single readings can be large; an effect the other way counts as inactive or inconclusive; further: nearly all actives have a fitted effect of over 50% in size; further: potency means the concentration at half of the fitted maximal effect)
How it was run: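 Seeding of HEK293 cells together with cytotoxicity dye preceded a 5 h incubation at 37 C/5% CO2. Test compounds in DMSO were then added and fluorescence monitored across 40 h.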
Tags describe the fitted curve by direction and shape or compound fluorescence and quenching.

## C[N+](C)(C)CCO
[1]
  Potency: inactive
[2]
  Potency: inactive

## NCC(=O)CCC(=O)O
[1]
  Potency: inactive
[3]
  activation: inconclusive: 8.29% [at 35.5 µM]

## NC(N)=NCCC[C@H](N)C(=O)O
[1]
  activation (H2AX phosphorylation): inactive: -0.995% [at 14 µM]

## CCC(C)O (configuration not stated)
[1]
  Potency: inactive
[2]
  Potency: inactive

## CC(C)OC(=O)CCCCC(=O)OC(C)C
[1]
  Potency: inactive

## C=C1CC[C@H]2C[C@@H]1C2(C)C
[1]
  Potency: inactive

## CC1=CC(C)C(C=O)CC1 (configuration not stated)
[1]
  Potency: inactive
[3]
  Potency: inactive

## COCCC(=O)OC
[1]
  Potency: inconclusive: 127 µM [activator, single point]

## CCCCCC(C)=O
[1]
  Potency: inconclusive: 113 µM [activator]
[3]
  Potency: inactive

## NNc1nnc(NN)c2ccccc12
[1]
  Potency: inactive

## OC[C@H]1O[C@H](O[C@]2(CCl)O[C@H](CCl)[C@@H](O)[C@@H]2O)[C@H](O)[C@@H](O)[C@H]1Cl
[1]
  Potency: inactive

## Cn1nnc2c(C(N)=O)ncn2c1=O
[1]
  activation (H2AX phosphorylation): inconclusive: 9.38% [at 70.9 µM]
[4]
  Potency: inactive
[5]; at 42.5 µM (top of the series)
  activity change, positive = activation: inactive: -0.988%

## CCCCc1ncc(/C=C(\Cc2cccs2)C(=O)O)n1Cc1ccc(C(=O)O)cc1
[1]
  Potency: inconclusive: 0.196 µM [falling, single point]

## Cc1c[nH]c(=O)[nH]c1=O
[5]; at 92.4 µM (top of the series)
  activity change, positive = activation: inactive: 0.0206%

## Nc1cccc(C(F)(F)F)c1
[6]
  Potency: inconclusive: 50.5 µM [activator, partial curve, poor fit]

## C=CC/C=C/C/C=C/C/C=C/C
[5]; at 92.4 µM (top of the series)
  activity change, positive = activation: inactive: 3.56%

## Cc1cccnc1
[5]; at 92.4 µM (top of the series)
  activity change, positive = activation: inactive: 2.78% and inactive: 3.63%

## CCOCN(C(=O)CS(=O)(=O)O)c1c(C)cccc1CC
[6]
  Potency: inactive

## COC(=O)c1ccc2cc(C(=O)OC)ccc2c1
[5]; at 19 µM (top of the series)
  activity change, positive = activation: inconclusive: 12.3%

## Nc1ccc(S(=O)(=O)Nc2nccs2)cc1
[6]
  Potency: inconclusive: 27.5 µM [activator, partial curve]
